The list shows a part of the results.

This assay addresses T1, MBP-FoxP1dN (Mus musculus, UniProt P58462 326-579).
T1 sequence: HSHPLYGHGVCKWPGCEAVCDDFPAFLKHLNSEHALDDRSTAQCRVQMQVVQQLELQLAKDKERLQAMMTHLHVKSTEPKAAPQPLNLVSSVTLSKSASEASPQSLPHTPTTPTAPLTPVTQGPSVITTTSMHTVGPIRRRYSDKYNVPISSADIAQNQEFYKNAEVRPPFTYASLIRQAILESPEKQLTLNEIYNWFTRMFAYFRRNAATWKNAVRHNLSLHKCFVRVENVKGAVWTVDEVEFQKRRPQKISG
As to the kind of experiment: PD-seq (MBP pull-down with sequencing); 20 mM Tris-HCl pH 7.5, 100 mM NaCl, 1.5 mM MgCl2, 0.4 uM protein, 0.1 uM dsDNA library, 30 min, room temperature, amylose pull-down; high values mean tight binding. The note with it: protein: recombinant; tags: His6-MBP; chain copies: 2; dsDNA, one strand shown. The method in brief: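 Binding is the reads-per-million enrichment of pull-down relative to input, pooled across replicates. For this, 0.4 µM His6-MBP-tagged mouse FoxP3 or FoxP1 fragment lacking the N-terminus, made in E. coli, was incubated with 0.1 µM Klenow-filled double-stranded degenerate DNA library for 30 min at room temperature in Tris pH 7.5 buffer with NaCl and MgCl2. Complexes bound to amylose resin were washed three times before proteinase K released the DNA for PCR barcoding and Illumina sequencing.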
As for “GATGATTGTTCTCCCAGCTGATGAATTTGCTAGATCGAGTAAACAAATTTTCCTAATCTTTCTGTTCAAGCGCCATCTAC”, the binding signal was 1.01 RPM ratio (pull-down/input).

Regarding “GATGATTGTTCTCCCAGCTGATGAATTTCTTCTGTCGAGTAAACAAATTTTCCTAATCTTTCTGTTCAAGCGCCATCTAC”, the binding signal was 0.874 RPM ratio (pull-down/input).

With “GATGATTGTTCTCCCAGCTGATGAATTTGATGCGTCGAGTAAACAAATTTTCCTAATCTTTCTGTTCAAGCGCCATCTAC”, the binding signal was 1.13 RPM ratio (pull-down/input).

For the sequence “GATGATTGTTCTCCCAGCTGATGAATTGTTATCCTCGAGTAAACAAATTTTCCTAATCTTTCTGTTCAAGCGCCATCTAC”, the binding signal was 1.55 RPM ratio (pull-down/input).

Turning to “GATGATTGTTCTCCCAGCTGATGAATTACTCCATTCGAGTAAACAAATTTTCCTAATCTTTCTGTTCAAGCGCCATCTAC”, the binding signal is 1.12 RPM ratio (pull-down/input).

As for “GATGATTGTTCTCCCAGCTGATGAATTCTTGGGATCGAGTAAACAAATTTTCCTAATCTTTCTGTTCAAGCGCCATCTAC”, the binding signal was 0.77 RPM ratio (pull-down/input).

For “GATGATTGTTCTCCCAGCTGATGAATTTTGGCCGTCGAGTAAACAAATTTTCCTAATCTTTCTGTTCAAGCGCCATCTAC”, the binding signal is 0.859 RPM ratio (pull-down/input).

For the sequence “GATGATTGTTCTCCCAGCTGATGAATTCATTTCTTCGAGTAAACAAATTTTCCTAATCTTTCTGTTCAAGCGCCATCTAC”, the binding signal is 0.913 RPM ratio (pull-down/input).

Turning to “GATGATTGTTCTCCCAGCTGATGAATTGATCACCTCGAGTAAACAAATTTTCCTAATCTTTCTGTTCAAGCGCCATCTAC”, the binding signal is 0.971 RPM ratio (pull-down/input).

In the case of “GATGATTGTTCTCCCAGCTGATGAATTCTACAGCTCGAGTAAACAAATTTTCCTAATCTTTCTGTTCAAGCGCCATCTAC”, the binding signal was 0.835 RPM ratio (pull-down/input).

For “GATGATTGTTCTCCCAGCTGATGAATTAGCTTAGTCGAGTAAACAAATTTTCCTAATCTTTCTGTTCAAGCGCCATCTAC”, the binding signal was 0.881 RPM ratio (pull-down/input).

For “GATGATTGTTCTCCCAGCTGATGAATTTTGGCCATCGAGTAAACAAATTTTCCTAATCTTTCTGTTCAAGCGCCATCTAC”, the binding signal was 0.945 RPM ratio (pull-down/input).

Consider “GATGATTGTTCTCCCAGCTGATGAATTGTACAATTCGAGTAAACAAATTTTCCTAATCTTTCTGTTCAAGCGCCATCTAC”, for which the binding signal was 1.08 RPM ratio (pull-down/input).

Take “GATGATTGTTCTCCCAGCTGATGAATTCTCCCCTTCGAGTAAACAAATTTTCCTAATCTTTCTGTTCAAGCGCCATCTAC”: the binding signal was 0.883 RPM ratio (pull-down/input).

Regarding “GATGATTGTTCTCCCAGCTGATGAATTACCGCTATCGAGTAAACAAATTTTCCTAATCTTTCTGTTCAAGCGCCATCTAC”, the binding signal is 1.1 RPM ratio (pull-down/input).

For the sequence “GATGATTGTTCTCCCAGCTGATGAATTCCCGGGATCGAGTAAACAAATTTTCCTAATCTTTCTGTTCAAGCGCCATCTAC”, the binding signal was 0.785 RPM ratio (pull-down/input).

For the sequence “GATGATTGTTCTCCCAGCTGATGAATTGTCCGGCTCGAGTAAACAAATTTTCCTAATCTTTCTGTTCAAGCGCCATCTAC”, the binding signal was 0.894 RPM ratio (pull-down/input).

Turning to “GATGATTGTTCTCCCAGCTGATGAATTTTAATCATCGAGTAAACAAATTTTCCTAATCTTTCTGTTCAAGCGCCATCTAC”, the binding signal is 1.06 RPM ratio (pull-down/input).

As for “GATGATTGTTCTCCCAGCTGATGAATTGGCACAATCGAGTAAACAAATTTTCCTAATCTTTCTGTTCAAGCGCCATCTAC”, the binding signal was 1.34 RPM ratio (pull-down/input).

“GATGATTGTTCTCCCAGCTGATGAATTACCCAGATCGAGTAAACAAATTTTCCTAATCTTTCTGTTCAAGCGCCATCTAC”: the binding signal was 0.925 RPM ratio (pull-down/input).

In the case of “GATGATTGTTCTCCCAGCTGATGAATTCATATGTTCGAGTAAACAAATTTTCCTAATCTTTCTGTTCAAGCGCCATCTAC”, the binding signal was 1.15 RPM ratio (pull-down/input).

Take “GATGATTGTTCTCCCAGCTGATGAATTGTTCTCATCGAGTAAACAAATTTTCCTAATCTTTCTGTTCAAGCGCCATCTAC”: the binding signal is 1.18 RPM ratio (pull-down/input).

Turning to “GATGATTGTTCTCCCAGCTGATGAATTTGGGCGGTCGAGTAAACAAATTTTCCTAATCTTTCTGTTCAAGCGCCATCTAC”, the binding signal is 0.774 RPM ratio (pull-down/input).

“GATGATTGTTCTCCCAGCTGATGAATTTGCCTCCTCGAGTAAACAAATTTTCCTAATCTTTCTGTTCAAGCGCCATCTAC”: the binding signal is 0.95 RPM ratio (pull-down/input).

For the sequence “GATGATTGTTCTCCCAGCTGATGAATTATTCACCTCGAGTAAACAAATTTTCCTAATCTTTCTGTTCAAGCGCCATCTAC”, the binding signal is 1.02 RPM ratio (pull-down/input).

In the case of “GATGATTGTTCTCCCAGCTGATGAATTGGGATATTCGAGTAAACAAATTTTCCTAATCTTTCTGTTCAAGCGCCATCTAC”, the binding signal is 0.954 RPM ratio (pull-down/input).

Consider “GATGATTGTTCTCCCAGCTGATGAATTGTAGCATTCGAGTAAACAAATTTTCCTAATCTTTCTGTTCAAGCGCCATCTAC”, for which the binding signal was 1.31 RPM ratio (pull-down/input).

Regarding “GATGATTGTTCTCCCAGCTGATGAATTGAGGTAATCGAGTAAACAAATTTTCCTAATCTTTCTGTTCAAGCGCCATCTAC”, the binding signal was 1.29 RPM ratio (pull-down/input).

With “GATGATTGTTCTCCCAGCTGATGAATTCACCTAGTCGAGTAAACAAATTTTCCTAATCTTTCTGTTCAAGCGCCATCTAC”, the binding signal is 0.865 RPM ratio (pull-down/input).

For “GATGATTGTTCTCCCAGCTGATGAATTAACGCAATCGAGTAAACAAATTTTCCTAATCTTTCTGTTCAAGCGCCATCTAC”, the binding signal is 1.33 RPM ratio (pull-down/input).

In the case of “GATGATTGTTCTCCCAGCTGATGAATTGTAGATCTCGAGTAAACAAATTTTCCTAATCTTTCTGTTCAAGCGCCATCTAC”, the binding signal is 0.889 RPM ratio (pull-down/input).

For “GATGATTGTTCTCCCAGCTGATGAATTAAGGGTTTCGAGTAAACAAATTTTCCTAATCTTTCTGTTCAAGCGCCATCTAC”, the binding signal was 0.875 RPM ratio (pull-down/input).

The record behind these values is article PMC12820563, “FoxP3 forms a head-to-head dimer in vivo and stabilizes its multimerization on adjacent microsatellites”.
